Experimental findings from patent US20240247076A1 are described below.

Positions count from the first letter of the chain named.

A word on the Kd: it is the equilibrium constant for the complex coming apart.

The test concerns the target cynomolgus monkey FXI-CHis protein (cynomolgus monkey). Nature of the test: BLI, antibody captured on sensor, antigen in solution. A general note: Biolayer interferometry detects binding as a change in optical thickness at a sensor tip.

B1: huFE56huv1-Ld-Fc (Fc fusion)
chain: QVQLVESGGGSVQAGGSLRLSCAASGHTYSSNYCMAWFRQAPGKEREGVAAIYSDGSTSYADSVKGRFTISKDNSKNTLYLQMNSLRAEDTAVYYCAATAYEGSWTGKQPLCLLYEYTYWGQGTLVTVSS[sequence of human IgG1 Fc omitted]
Molecule B1 had a Kd of 5.93 nM.

B2: huFE56huv2-Ld-Fc (Fc fusion)
chain: B1 chain with S11L, A14P, K72R
The molecule B2 had a Kd of 7.23 nM.

B3: huFE35huv1-Ld-Fc (Fc fusion)
chain: QVQLVESGGGSVQAGGSLRLSCTASGFTFDDSDMGWYRQAPGNECELVSTISSDGRGFYADSVKGRFTISQDNSKNTVYLQMNSLRAEDTAVYYCAAGWYGSFCSGLGQGTLVTVSS[sequence of human IgG1 Fc omitted]
In turn, B3 returned a Kd of less than 0.001 nM.

B4: huFE35huv2-Ld-Fc (Fc fusion)
chain: B3 chain with S11L, A14P, T23A, Q71R, V78L
In the case of B4, the equilibrium dissociation constant (Kd) worked out at 0.00124 nM.

B5: huFE97huv1-Ld-Fc (Fc fusion)
chain: QVQLVESGGGSVQAGGSLRLSCTASEFTFDDSDMAWYRQAPGNECELVSTITSDGGTYYADSVKGRFTISQDNSKNTMYLQMNSLRAEDTAVYYCAADQWGSAEGDCTSSYPGGYWGQGTLVTVSS[sequence of human IgG1 Fc omitted]
B5 yielded a Kd of less than 0.001 nM.

B6: huFE97huv2-Ld-Fc (Fc fusion)
chain: B5 chain with S11L, A14P, T23A, Q71R, M78L
Consider B6, for which the Kd was less than 0.001 nM.

B7: huFE13huv1-Ld-Fc (Fc fusion)
chain: QVQLVESGGGSVQAGGSLRLSCAASGYTYSMGAMAWFRQAPGKEREGVALIATSSGFISYTDSVKGRFTISQDNSKNTVYLQMNSLRAEDTAVYYCAAGTQFSWSPGSYNYWGQGTLVTVSS[sequence of human IgG1 Fc omitted]
With B7, the Kd turned out to be 12.7 nM.

B8: huFE13huv2-Ld-Fc (Fc fusion)
chain: B7 chain with S11L, A14P, E44G, R45L, A49S, Q72R, V79L
For the molecule B8, the dissociation constant Kd is 20.6 nM.

B9: huFE148huv1-Ld-Fc (Fc fusion)
chain: QVQLVESGGGSVQAGGSLRLSCAASGYTFNNNFVGWFRQAPGKEREGVAAIYSLGGSTYYADSVKGRFTISQDNSKNTVYLQMNSLRAEDTAVYYCAGAITWVPPLSHRRYTYWGQGTLVTVSS[sequence of human IgG1 Fc omitted]
As for B9, the Kd came to 0.987 nM.

B10: huFE148huv2-Ld-Fc (Fc fusion)
chain: B9 chain with S11L, A14P, E44G, R45L, A49S, Q72R, V79L, G98A
Consider B10, for which the Kd came to 0.825 nM.
